# Source: the supplement of paper PMC8728848
# The other results are listed elsewhere or left out.
# B1: E-Selectin (Homo sapiens), P16581 (protein)
# chain: MIASQFLSALTLVLLIKESGAWSYNTSTEAMTYDEASAYCQQRYTHLVAIQNKEEIEYLNSILSYSPSYYWIGIRKVNNVWVWVGTQKPLTEEAKNWAPGEPNNRQKDEDCVEIYIKREKDVGMWNDERCSKKKLALCYTAACTNTSCSGHGECVETINNYTCKCDPGFSGLKCEQIVNCTALESPEHGSLVCSHPLGNFSYNSSCSISCDRGYLPSSMETMQCMSSGEWSAPIPACNVVECDAVTNPANGFVECFQNPGSFPWNTTCTFDCEEGFELMGAQSLQCTSSGNWDNEKPTCKAVTCRAVRQPQNGSVRCSHSPAGEFTFKSSCNFTCEEGFMLQGPAQVECTTQGQWTQQIPVCEAFQCTALSNPERGYMNCLPSASGSFRYGSSCEFSCEQGFVLKGSKRLQCGPTGEWDNEKPTCEAVRCDAVHQPPKGLVRCAHSPIGEFTYKSSCAFSCEEGFELHGSTQLECTSQGQWTEEVPSCQVVKCSSLAVPGKINMSCSGEPVFGTVCKFACPEGWTLNGSAARTCGATGHWSGLLPTCEAPTESNIPLVAGLSAAGLSLLTLAPFLLWLRKCLRKAKKFVPASSCQSLESDGSYQKPSYIL
# What was measured:
# Experiment in all cases: glycan array binding signal (z-score within array); higher = stronger binding
# Conditions in all cases: glycan notation: IUPAC condensed, linker removed
# [1] = biological target: Neu5Ac(a2-3)Gal(b1-3)GlcNAc(b1-3)Gal(b1-3)GlcNAc
# Method in brief: (§1)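 Glycan array binding is given as a within-array Z-score, which can be read as non-binding when negative. The arrays, 3228 of them, came from the Consortium for Functional Glycomics database and were retained only where the protein sequence was available. Z-scores were averaged across arrays of the same protein sequence at different concentrations or buffers and across linkers.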
# [2] = biological target: Neu5Ac(a2-3)Gal(b1-3)GlcNAc6S
# Method in brief: as §1
# [3] = biological target: Neu5Ac(a2-3)Gal(b1-3)[Fuc(a1-4)]GlcNAc
# Method in brief: as §1
# [4] = biological target: Neu5Ac(a2-3)Gal(b1-3)[Fuc(a1-4)]GlcNAc(b1-3)Gal(b1-4)[Fuc(a1-3)]GlcNAc
# Method in brief: as §1
# [5] = biological target: Neu5Ac(a2-3)Gal(b1-3)[Neu5Ac(a2-3)Gal(b1-4)]GlcNAc
# Method in brief: as §1
# [6] = biological target: Neu5Ac(a2-3)Gal(b1-3)[Neu5Ac(a2-6)]GalNAc
# Method in brief: as §1
# Neu5Ac(a2-3)Gal(b1-4)Glc = biological target: Neu5Ac(a2-3)Gal(b1-4)Glc
# Method in brief: as §1
# [7] = biological target: Neu5Ac(a2-3)Gal(b1-4)GlcNAc
# Method in brief: as §1
# [8] = biological target: Neu5Ac(a2-3)Gal(b1-4)GlcNAc(b1-2)Man(a1-3)[GlcNAc(b1-2)Man(b1-4)GlcNAc(b1-2)Man(a1-6)]Man(b1-4)GlcNAc(b1-4)GlcNAc
# Method in brief: as §1
# [9] = biological target: Neu5Ac(a2-3)Gal(b1-4)GlcNAc(b1-2)Man(a1-3)[Neu5Ac(a2-3)Gal(b1-4)GlcNAc(b1-2)Man(a1-6)]Man(b1-4)GlcNAc(b1-4)GlcNAc
# Method in brief: as §1
# [10] = biological target: Neu5Ac(a2-3)Gal(b1-4)GlcNAc(b1-2)Man(a1-3)[Neu5Ac(a2-6)Gal(b1-4)GlcNAc(b1-2)Man(a1-6)]Man(b1-4)GlcNAc(b1-4)GlcNAc
# Method in brief: as §1
# [11] = biological target: Neu5Ac(a2-3)Gal(b1-4)GlcNAc(b1-3)Gal(b1-3)GlcNAc
# Method in brief: as §1
# [12] = biological target: Neu5Ac(a2-3)Gal(b1-4)GlcNAc(b1-3)Gal(b1-4)GlcNAc
# Method in brief: as §1
# [13] = biological target: Neu5Ac(a2-3)Gal(b1-4)GlcNAc(b1-3)Gal(b1-4)GlcNAc(b1-3)Gal(b1-4)GlcNAc
# Method in brief: as §1
# [14] = biological target: Neu5Ac(a2-3)Gal(b1-4)GlcNAc(b1-3)Gal(b1-4)[Fuc(a1-3)]GlcNAc
# Method in brief: as §1
# [15] = biological target: Neu5Ac(a2-3)Gal(b1-4)GlcNAc(b1-6)[Gal(b1-3)]GalNAc
# Method in brief: as §1
# [16] = biological target: Neu5Ac(a2-3)Gal(b1-4)GlcNAc(b1-6)[Neu5Ac(a2-3)Gal(b1-3)]GalNAc
# Method in brief: as §1
# [17] = biological target: Neu5Ac(a2-3)Gal(b1-4)GlcNAc6S
# Method in brief: as §1
# [18] = biological target: Neu5Ac(a2-3)Gal(b1-4)[Fuc(a1-3)]GlcNAc
# Method in brief: as §1
# [19] = biological target: Neu5Ac(a2-3)Gal(b1-4)[Fuc(a1-3)]GlcNAc(b1-3)Gal
# Method in brief: as §1
# [20] = biological target: Neu5Ac(a2-3)Gal(b1-4)[Fuc(a1-3)]GlcNAc(b1-3)Gal(b1-4)GlcNAc
# Method in brief: as §1
# [21] = biological target: Neu5Ac(a2-3)Gal(b1-4)[Fuc(a1-3)]GlcNAc(b1-3)Gal(b1-4)[Fuc(a1-3)]GlcNAc(b1-3)Gal(b1-4)[Fuc(a1-3)]GlcNAc
# Method in brief: as §1
# [22] = biological target: Neu5Ac(a2-3)Gal(b1-4)[Fuc(a1-3)]GlcNAc(b1-6)[Gal(b1-3)]GalNAc
# Method in brief: as §1
# [23] = biological target: Neu5Ac(a2-3)Gal(b1-4)[Fuc(a1-3)]GlcNAc6S
# Method in brief: as §1
# [24] = biological target: Neu5Ac(a2-3)Gal6S(b1-4)GlcNAc
# Method in brief: as §1
# [25] = biological target: Neu5Ac(a2-3)Gal6S(b1-4)[Fuc(a1-3)]GlcNAc
# Method in brief: as §1
# Neu5Ac(a2-3)GalNAc = biological target: Neu5Ac(a2-3)GalNAc
# Method in brief: as §1
# [26] = biological target: Neu5Ac(a2-3)GalNAc(b1-4)GlcNAc
# Method in brief: as §1
# [27] = biological target: Neu5Ac(a2-3)[GalNAc(b1-4)]Gal(b1-4)Glc
# Method in brief: as §1
# [28] = biological target: Neu5Ac(a2-3)[GalNAc(b1-4)]Gal(b1-4)GlcNAc
# Method in brief: as §1
binder,measurement,setting,value
B1,glycan array binding signal (z-score),[1],-0.157
same,glycan array binding signal (z-score),[2],0.08
same,glycan array binding signal (z-score),[3],9.04
same,glycan array binding signal (z-score),[4],3.76
same,glycan array binding signal (z-score),[5],-0.137
same,glycan array binding signal (z-score),[6],-0.087
same,glycan array binding signal (z-score),Neu5Ac(a2-3)Gal(b1-4)Glc,-0.029
same,glycan array binding signal (z-score),[7],-0.045
same,glycan array binding signal (z-score),[8],0.027
same,glycan array binding signal (z-score),[9],-0.122
same,glycan array binding signal (z-score),[10],-0.202
same,glycan array binding signal (z-score),[11],0.103
same,glycan array binding signal (z-score),[12],-0.054
same,glycan array binding signal (z-score),[13],0.038
same,glycan array binding signal (z-score),[14],-0.089
same,glycan array binding signal (z-score),[15],-0.157
same,glycan array binding signal (z-score),[16],-0.234
same,glycan array binding signal (z-score),[17],0.37
same,glycan array binding signal (z-score),[18],0.286
same,glycan array binding signal (z-score),[19],3.07
same,glycan array binding signal (z-score),[20],0.243
same,glycan array binding signal (z-score),[21],0.081
same,glycan array binding signal (z-score),[22],-0.024
same,glycan array binding signal (z-score),[23],0.171
same,glycan array binding signal (z-score),[24],0.072
same,glycan array binding signal (z-score),[25],0.067
same,glycan array binding signal (z-score),Neu5Ac(a2-3)GalNAc,0.035
same,glycan array binding signal (z-score),[26],-0.106
same,glycan array binding signal (z-score),[27],-0.136
same,glycan array binding signal (z-score),[28],-0.079
